Laboratory results from PubChem BioAssay AID1240 (Sanford-Burnham Center for Chemical Genomics, 2008).
The campaign covered roughly 50,000 compounds. About 800 (1.6%) showed an effect of 50% or more. Some of the results follow.

biological target: Bcl-2-like protein 10 (Homo sapiens) (UniProt Q9HD36); assay: Phenotype converters, Bcl-B/TR3 peptide binding displacement, primary biochemical FP (AID 1240); conditions: GST-Bcl-B / FITC-TR3 peptide fluorescence polarization; stronger effect = higher value; compound at 3.75 mg/L;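 also: 0% = Bcl-B with tracer peptide and DMSO and 100% = tracer peptide lacking Bcl-B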
Sequence of UniProt Q9HD36 (Q9HD36 whole entry, looked up): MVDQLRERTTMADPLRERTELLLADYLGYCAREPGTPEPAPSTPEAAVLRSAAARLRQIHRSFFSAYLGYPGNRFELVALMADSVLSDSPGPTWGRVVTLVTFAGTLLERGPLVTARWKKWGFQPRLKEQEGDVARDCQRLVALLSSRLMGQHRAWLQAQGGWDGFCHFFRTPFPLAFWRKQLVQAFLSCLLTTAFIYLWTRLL

Row | SMILES | displacement [%]
1 | COc1ccc(/C=C2\C(=O)NC(=O)N(c3ccc(Cl)cc3)C2=O)cc1C | 4.9
2 | COC(=O)c1cc(NC(=O)c2ccccc2Br)cc(C(=O)OC)c1 | 15
3 | O=C(NCCC1=CCCCC1)c1cc(Cl)ccc1[N+](=O)[O-] | -8.7
4 | CCCS(=O)(=O)c1c(S(=O)(=O)CCC)c2c(C)cccn2c1C(N)=O | -9.8
5 | COc1ccc(OCC(=O)Nc2cccc(OC)c2)cc1 | 23.9
6 | COC(=O)c1ccccc1NC(=O)C1CCC(C)(C(=O)O)C1(C)C (centres undefined) | -2.2
7 | COc1cc(NC(=O)C(c2ccccc2)c2ccccc2)ccc1NC(=O)c1ccco1 | -5.3
8 | O=C(Nc1ccc(Nc2ccccc2)cc1)c1ccc(Br)cc1 | -2.2
9 | COc1cc(/C=C/C(=O)c2c(-c3ccccc3)c3cc(Cl)ccc3[nH]c2=O)cc(Br)c1OC | 2.8
10 | Cc1cc(NC(=O)c2ccccc2)sc1C | 13.5
11 | CCN(CC)CCN1C(=O)C(O)=C(C(=O)/C=C/c2ccccc2)C1c1ccc(Br)cc1 (centres undefined) | 11.4
12 | CCOC(=O)c1c(NC(=O)COc2ccccc2)sc(C(=O)Nc2cc(C(F)(F)F)ccc2Cl)c1C | 13.2
13 | O=C(NCCNc1ccc(C(F)(F)F)cc1[N+](=O)[O-])c1cc(F)c(F)cc1Cl | -0.7
14 | CCCOc1cc2oc(=O)c3c(c2cc1Cl)CCCC3 | -7.1
15 | COc1ccc(-c2noc(COc3ccc(Cl)cc3)n2)cc1 | 12.8
16 | O=C(Nc1ccccc1)O/N=C\c1ccc(F)cc1 | 10.2
17 | Oc1ccc(/C=N/Nc2nnc(-c3ccccc3)c(-c3ccccc3)n2)cc1 | 1.7
18 | O=C1C(=O)N(Cc2ccc(Cl)c(Cl)c2)c2ccccc21 | -1.1
19 | Cc1ccc(S(=O)(=O)NC(=O)Nc2ccccc2F)cc1 | 14.4
20 | Cc1nc2ccccc2n1C(=O)c1ccc([N+](=O)[O-])cc1 | 11
21 | Cc1ccc(C2OC3(C(=O)c4ccccc4C3=O)C(c3cccc(Cl)c3)C23C(=O)c2ccccc2C3=O)cc1 (centres undefined) | 2
22 | C=CCOc1ccc(/C=C2\SC(=S)N(Cc3ccccc3)C2=O)cc1OC | 11.8
23 | COc1ccccc1N1CCN(C(=O)c2sc3cc(C)ccc3c2Cl)CC1 | -7.2

Row | SMILES | displacement [%]
24 | COc1ccc(/C(N)=N/OC(=O)/C=C/c2ccccc2)cc1 | -11.5
25 | Cc1ccccc1/C=C(/C#N)C(=O)Nc1cccc(Br)c1 | -9.8
26 | FC(F)(F)c1nc2ccccc2nc1-c1ccccc1 | -4.6
27 | COc1cc(/C=C2\SC(NC(C)=O)=NC2=O)cc2sc(=O)oc12 | 24.7
28 | COc1ccc(N2C(=O)C3C4c5ccccc5C(C)(c5ccccc54)C3C2=O)cc1 (centres undefined) | 3.8
29 | CC1(C)CC(=O)c2c(oc3ccc(NS(=O)(=O)c4ccc(Br)cc4)cc23)C1 | 2.5
30 | COc1ccc(/C=C/C(=O)NCc2ccc(C)cc2)cc1OC | 9.4
31 | O=S(=O)(c1ccc2ccccc2c1)N(CC(O)CN1CCOCC1)c1ccccc1 (centres undefined) | -0.7
32 | COc1cccc(CNCc2ccccc2[N+](=O)[O-])c1OC | 8.5
33 | CCOC(=O)CCc1c(C)nc2cc(-c3ccc(Cl)cc3)[nH]n2c1=O | -0.7
34 | O=C1S/C(=C\c2ccc(Br)c([N+](=O)[O-])c2)C(=O)N1c1ccccc1 | 7.6
35 | CC1=NN(C(=O)c2ccc([N+](=O)[O-])cc2)C(O)(C(F)(F)F)C1 (centres undefined) | 6.8
36 | CC1CCCC(C)N1CC(O)COc1ccccc1C(C)(C)C (centres undefined) | 1
37 | COc1ccc(-n2cnc3cc(NC(C)=O)ccc32)cc1 | -12
38 | Cc1ccc(N2C(=O)/C(=C/C3CC=CCC3)SC2=S)cc1 (centres undefined) | 15.3
39 | CCOC(=O)C1(Nc2ccc(C)cc2)Sc2cc(C)ccc2NC1=O (centres undefined) | 9.1
40 | O=C(Nc1nc(-c2ccc(Cl)c(Cl)c2)cs1)c1ccc(S(=O)(=O)N2CCOCC2)cc1 | -0.5
41 | Cc1ccc(N2NC(=O)/C(=C/c3cc([N+](=O)[O-])ccc3Cl)C2=O)cc1C | 27.9
42 | CCN(CC)C(=O)CN(c1ccc(OC)cc1)S(C)(=O)=O | 5.1
43 | O=C(O)c1cc(-c2ccc(/C=C3/Sc4ccccc4C3=O)o2)ccc1O | -7.1
44 | Cc1cccc(-c2cc3nc(-c4ccc([N+](=O)[O-])cc4)cc(=O)n3[nH]2)c1 | 0.1
45 | COc1c(Cl)cc(C(=O)Nc2ccc(I)cc2Cl)cc1Cl | 14.6
46 | O=CN1CCN(C(=O)c2ccc(F)cc2)CC1 | -0.6

Row | SMILES | displacement [%]
47 | OC(COCc1ccc(Cl)cc1)CSc1ccccn1 (centres undefined) | -10.9
48 | COc1ccccc1C1CC(c2ccc(Br)cc2)=NN1C(=O)CCC(=O)O (centres undefined) | -18.1
49 | O=C(/C=C/c1ccco1)Nc1cccc([N+](=O)[O-])c1 | 5.3
50 | COc1ccc(CN2CCN(Cc3ccncc3)CC2)c(OC)c1OC | 3.6
51 | CSc1ccccc1NC(=O)CSc1nc2ccccc2s1 | 0.1
52 | COc1ccccc1NC(=O)c1ccc2c(c1)C(=O)N(N1C(=O)c3ccccc3C1=O)C2=O | -0.6
53 | Cc1onc(-c2ccccc2Cl)c1C(=O)N1CCN(c2ccccc2F)CC1 | -4.1
54 | Cc1ccc(OCC(=O)Nc2ccc(I)cc2)cc1 | -6.5
55 | COc1ccc(Oc2coc3cc(OC(C)=O)ccc3c2=O)cc1 | 11.2
56 | CCOc1ccc(OCC)c(S(=O)(=O)n2cc(C)nc2CC)c1 | 12.3
57 | COc1ccccc1C/C(N)=N/OC(=O)COc1ccccc1C | 4.6
58 | O=C(c1ccco1)N1CCN(Cc2cccc(Cl)c2)CC1 | 4.9
59 | C=CCOc1c(Br)cc(C2C(C(=O)OC)=C(C)NC3=C2C(=O)c2ccccc23)cc1OC (centres undefined) | 9.7
60 | COc1ccc(OC)c(NC(=S)NC(NC(=O)c2cccc(C)c2)C(Cl)(Cl)Cl)c1 (centres undefined) | 11.2
61 | O=C(NC(=S)Nc1ccc(Cl)c(-c2nc3cc(Cl)ccc3o2)c1)c1ccco1 | 23.3
62 | CCOc1cccc(/C=C2\SC(=O)N(c3ccccc3)C2=O)c1O | 3
63 | COc1ccc(-c2nc3cc(NC(=O)COc4ccc(Br)cc4)ccc3o2)cc1 | 4.5
64 | COc1ccc(/C=C/C(=O)NC(=S)Nc2ccccc2Cl)cc1OC | 12.6
65 | O=C(NCCc1ccc(Cl)cc1)Nc1ccc(Br)cc1 | 13.2
66 | CCOC(=O)c1ccc(NC(=O)C2CC(=O)N(c3ccc(F)cc3)C2)cc1 (centres undefined) | 6.3
67 | Cc1ccc(/C=C2\SC(=Nc3ccc(O)cc3)NC2=O)cc1 | 0.1
68 | CCCCOc1ccc(C(=O)NC(C)c2ccc(OC)cc2)cc1 (centres undefined) | -5.3
69 | CC1CC(Nc2ccccc2)c2ccccc2N1C(=O)c1ccc(NS(C)(=O)=O)cc1 (centres undefined) | 8.6
